According to the supplement of paper PMC10126150:
Sequences with one replicate were seen in a single cluster, so their values are uncertain.

System: ATP
Test: switch fluorescence ratio, 500 uM ATP over buffer (Cy3 cluster intensity, sum of 5 cycles each) (fold (ratio)); higher = stronger signal-on switching upon ATP binding; sequences stand for … in TCGTCGGCAGCGTCAGATGTGTATAAGAGACAGTTTTTTTTTTTTTTTTTTTTTTTTT…TC
Conditions: aptamer strand: ATP DNA aptamer (quencher-CACCTGGGGGAGTATTGCGGAGGAAGG + anchor), 100 nM annealed; ATP concentration: 500 uM; one replicate
Method in brief: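 The quencher-labelled ATP aptamer, at 100 nM, was annealed to Cy3-labelled switching-strand clusters on a modified Illumina MiSeq flow-cell. The clusters were imaged in selection buffer, then after 15 min with 500 uM ATP at 22 °C, and this buffer/ATP cycle ran five times with NaOH stripping and re-annealing between runs. Per-cluster fluorescence ratios, summed target-cycle over summed buffer-cycle Cy3 intensity, were averaged per switch-domain sequence. Clusters outside 100-1000 RFU were excluded.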
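Also: ATP exposure 15 min at 22 °C before imaging.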

| Sequence | switch fluorescence ratio |
| --- | --- |
| ATACTTCTCG | 1.03 |
| AGATCCTTGG | 1.05 |
| AAATCGGTTC | 1.01 |
| AAATTATGCA | 0.982 |
| GGTGAAATT | 1.13 |
| ATGAGTTACG | 0.979 |
| AAGCGTTCGA | 1.04 |
| GATGATTTAT | 1.01 |
| TGCTCTGTAT | 1.03 |
| CTCTACTGAA | 1.05 |
| CGGTGTACCG | 0.951 |
| AGCGCCAACG | 0.979 |
| CTCAGTGTGA | 1.05 |
| CAAGTAGGCC | 1.01 |
| GACATTTGCT | 1.06 |
| AACGATATTG | 1.02 |
| GGATATACAC | 1.08 |
| TCATTAAAAT | 1.04 |
| GATGAGCCTC | 1.01 |
| ACACTGGCTC | 1.04 |
| TTTAACACGG | 1.03 |
| GGGCTATTGA | 1.02 |
| GAAAGAGTCT | 1.1 |
| TTGAGCTTTG | 1.02 |
| TGTTATGGGG | 0.977 |

| Sequence | switch fluorescence ratio |
| --- | --- |
| TGGTACTGTT | 1.04 |
| GCACGGCCGC | 1.2 |
| AACAGTTAAG | 1.02 |
| CGGTAGACGT | 1.04 |
| ATTTCGACCT | 1.04 |
| CCGGTTGGGA | 1.16 |
| GGATTTTGCA | 0.98 |
| GAAGATCTAG | 1.02 |
| CGGTTCTTAC | 1.07 |
| CCTGGAACCG | 1.86 |
| AAACTAAGGG | 1.01 |
| TACATGTATT | 1.03 |
| CGGAGTACGT | 1.05 |
| TTAGAGGTGC | 1.06 |
| ATGCATCTCA | 1.03 |
| GCAAACGACG | 1.18 |
| GCCAAGGAGC | 0.984 |
| TTCATAAGCG | 0.993 |
| TATTCTGTCT | 1.02 |
| TACCAGGTTA | 1.09 |
| TAGGGTGCTC | 1.06 |
| TCTGTGGGGT | 0.961 |
| AAATTTTCAG | 0.998 |
| GGCTCAGCAT | 1.59 |
| CCGTGGGGAG | 1.01 |

| Sequence | switch fluorescence ratio |
| --- | --- |
| CCCAATGTTT | 1.16 |
| ATAAATCCAA | 0.918 |
| GGGCCCGACA | 0.995 |
| TCTATCATAC | 1.18 |
| TTGCTCAATC | 1.04 |
| CAGTAATGGA | 1.08 |
| AAGGTTGAGA | 0.959 |
| TGTTAGCTA | 1.03 |
| TAGTTCGCGT | 1.09 |
| TGTTAAGGTT | 0.966 |
| ATCCGAGTTT | 1.01 |
| CCTGATATGC | 1.44 |
| CTGAATGAAC | 0.992 |
| CCTCTATAAT | 3.26 |
| ATCGTTTAAC | 0.955 |
| TAGGCCTGTT | 0.989 |
| TATAGTGCTG | 0.972 |
| ATTCGCCCAC | 1.17 |
| GGGTTGTAAC | 0.988 |
| TGGAAAACAT | 0.988 |
| ACGTAAAGGC | 1.1 |
| CCAATGGATC | 1.03 |
| ATGCTGGCGG | 1.01 |
| TTACAGCACT | 1.59 |
| CTTAGGTTGC | 0.998 |

| Sequence | switch fluorescence ratio |
| --- | --- |
| AACATGTCGG | 0.991 |
| TTTTAATGA | 1.04 |
| CTGAATTCTT | 1.02 |
| TCGGTTGGA | 0.979 |
| AAAGGCCTTG | 1 |
| GGTCTCTCCA | 0.988 |
| GTTTGGGGT | 1.03 |
| TAGTCTGGA | 1.03 |
| AAACCAGGGT | 1.12 |
| GCACTAAAGC | 0.962 |
| TTGCATAAAG | 0.99 |
| TGCGCGCCG | 1 |
| AAAGATGGTT | 1.06 |
| TCGATAGTAT | 0.999 |
| CGGGCCTGCG | 1.02 |
| ATTGCCTTAC | 2.17 |
| AGGAGTGGTT | 0.977 |
| CATGGGAAG | 0.981 |
| GCAATGGGGC | 1.31 |
| CAGGGCACGC | 1.03 |
| AACCTACATA | 1.18 |
| GCTGGTGAAG | 1.02 |
| AAATCCGTGG | 0.967 |
| TATTGTCGTA | 1.01 |
| GTACGTCGCG | 1.02 |

| Sequence | switch fluorescence ratio |
| --- | --- |
| ATCGTAAATG | 0.995 |
| CTTATGGGAC | 0.991 |
| GGCACTAATA | 1.03 |
| CGGGGTAACT | 1 |
| ACAGTACAG | 1.43 |
| GGCATGTTTT | 1.05 |
| GGCGCTCAGG | 1.04 |
| CGGTTTATTT | 1.02 |
| CGGTTCAGGA | 0.984 |
| CTGGTCTTGT | 1.03 |
| GTACCCAGGA | 1.46 |
| AAGCTCGACC | 1.07 |
| ACCTTTCTCA | 2.12 |
| CGTCATGGTG | 1.04 |
| GTTGCAGTGA | 1.02 |
| TGACTGTTCG | 1.04 |
| GATAATGTAT | 0.999 |
| GAAATTTTGG | 0.998 |
| CATTGGATGA | 0.975 |
| AAAAGTTGAG | 1.03 |
| CAATAGAAAG | 0.988 |
| ATATTACTAT | 1.02 |
| GGTTTAGC | 1.03 |
| GCGATAAG | 1.08 |
| ATAGTATGCT | 1.06 |

| Sequence | switch fluorescence ratio |
| --- | --- |
| CGTTGAGACT | 0.996 |
| AAGTCTACCT | 1.13 |
| TAGCCTGGTT | 0.976 |
| ATATCATACG | 1.04 |
| CTGCCCAAAA | 1.04 |
| ACGGGCCTT | 0.998 |
| CTAACGATAT | 1.09 |
| CGTGTCACAT | 1 |
| GGAGGGCTCT | 1.02 |
| CGTAGCTCGT | 1.04 |
| GCGATGGTA | 0.97 |
| ACAAACTGGC | 1.11 |
| ACTTACTAT | 1.13 |
| ACCACTATCC | 1.06 |
| AATAGGGCT | 0.961 |
| CCCCACCCGG | 1.18 |
| CCCCTCGGTC | 1.16 |
| AGCTTAATCT | 0.985 |
| GGGGGCACCT | 1 |
| TAATCCCCGT | 1.26 |
| TTATAGTATA | 1.03 |
| TAGGTTGGTA | 0.998 |
| AGGTTTTGGC | 0.961 |
| TGCGTTTAAA | 1.12 |
| GAATCCGATG | 1.05 |

| Sequence | switch fluorescence ratio |
| --- | --- |
| GACGGTGAGT | 1.03 |
| TATTTAAACA | 1.05 |
| TTACGCGGGG | 1.05 |
| GGTGGCAACG | 1.01 |
| AAGTCACCCC | 1.19 |
| GAGTATCCCT | 0.992 |
| TGTTTTCAAA | 0.989 |
| GTTCTATCGT | 1.03 |
| GATGGTTCGA | 0.941 |
| ATTAACGTCT | 1 |
| GATTAGTTGG | 1.03 |
| GACTCGGACA | 1.04 |
| ATAATTAGC | 1 |
| AGAGTCATAA | 0.982 |
| ATTCACGAAT | 1.01 |
| GTATGCCGCG | 0.992 |
| TCACTTGTCC | 1.04 |
| GATGTAAGCT | 1.03 |
| GCGAGCTATC | 1.24 |
| TGGGCCATCA | 0.987 |
| AGATTGGCTT | 0.969 |
| GGTCGTGTC | 0.991 |
| TTAGAGTTAT | 0.988 |
| TTCGGAGGTT | 0.974 |
| TGGTTTATTA | 1.03 |

| Sequence | switch fluorescence ratio |
| --- | --- |
| AGGACTATGT | 0.921 |
| CACTGAGGCG | 1.07 |
| CCTCAGACCG | 1.07 |
| TGCACACAAA | 1.06 |
| CTGTATAAGG | 0.984 |
| AGGCGATCGC | 0.992 |
| GGATTGCGCG | 1 |
| CCATATTTGA | 1.03 |
| ATTCTGGTCA | 0.972 |
| GCTTTTAGA | 1.03 |
| TGAAGACCAG | 0.948 |
| GTGGTCGCAG | 0.961 |
| ATTTCTTACT | 0.997 |
| ACTGCATGCA | 1 |
| AAGCGTGAAA | 1.06 |
| GGCGCAGGCG | 1.01 |
| CGGGCAGCAA | 3.4 |
| TAGCATTCGC | 1.04 |
| GGCGTGAAAT | 1.01 |
| TAATCTGGAG | 1.03 |
| AATAGGGCCC | 1.07 |
| GTAACGATTA | 1.01 |
